Test results from PubChem BioAssay AID1347430 (National Center for Advancing Translational Sciences (NCATS), 2020).
The whole screen tested about 91,000 compounds, of which about 130 (0.14%) were called active. The shares of active, inactive and inconclusive entries below differ from those in the screen. The call rests on the fitted dose curve; in most records, active means well fitted inhibition curve with a large enough effect; inconclusive means small, poorly fitted or top-dose-only effect; inactive means flat fitted curve, though single readings scatter. Potencies beside an inconclusive call are fits to weak or partial responses and may not hold up.

system: Uracil-DNA glycosylase; assay: Primary qHTS assay for inhibitors of Activation Induced Cytidine Deaminase (AID): UDG Counterscreen signal; conditions: FRET deamination/UDG coupled assay, UDG read, 4 h; series mostly up to 115 µM; further: nearly all actives have a fitted effect of over 65% in size
Description: Assay Provider (PI) Patricia Gearhart Ph.D.
National Institute on Aging
National Institute of Health (NIH), Bethesda, MD
Assay Provider (PI) Rahul Kohli Ph.D.
Perelman School of Medicine
University of Pennsylvania, Philadelphia, PA
Activation-Induced Deaminase (AID) is a cytosine deaminase which converts cytosine into uracil within stretches of ssDNA. The presence of uracil in DNA initiates a cascade of mutagenic DNA repair to introduce point mutations and DNA double strand breaks. Specific targeting of AID to the immunoglobulin heavy chain loci (Igh) promotes mutagenesis in the antibody variable region for somatic hypermutation (SHM) or switch regions leading to class switch recombination (CSR). However, AID also plays a role in accumulating unnecessary mutations across the genome. Mis-targeting of AID results in the initiation of tumor development and leads to greater drug resistance among cancer cells when continually expressed. To identify an AID inhibitor, a small molecule library will be screened in collaboration with NCATS core facility at NIH. To confirm biological function, inhibitors will be examined in an in vitro murine B-cell activation assay and subsequent secondary validation screens. Top molecules will be further screened to identify inhibitory efficacy against a wild type primary splenocytes assay. Using these approaches, we hope to identify a small molecule with great efficacy and low toxicity for use as a molecular probe to further characterize AID's intricacies, or even as a therapeutic.
A FRET based analysis of cytosine deamination, was developed to identify potential inhibitors of AID catalytic activity. This screen has two signal output, Read 1 evaluates the AID inhibition response. The second readout (Read 2) evaluates UDG response and is uses as a counterscreen to exclude false positive inhibitors. Inhibition in AID and inactivity in the UDG signal is the desired outcome for this assay.
SEQUENCE No. (e.g., 1, 2, 3, etc.); […] (e.g., Cells, Incubation, Reagent, etc.); VALUE; DESCRIPTION
1a; Reagent; 3 uL; [4/3x] 1 uM AID/2.67 U/mL UDG
1b; Reagent; 3 uL; 2 U/mL UDG
1c; Reagent; 3 uL; 1 uM AID
2a; Compound; 46 nL; Follow-up plates (0.64 uM - 10 mM)
2b; Control; 46 nL; ATA ([…] - 10 mM)
3; Time; 10 min; incubation at room temperature
5; Time; 4 hr; incubation at room temperature
6; Reagent; 4 uL; [2x] 250 mM NaOH
7; Time; 15 sec; centrifuge at 1000 rpm
8; Time; 30 min; incubation at room temperature
9a; Detection; fluorescence (Read 1: AID); EnVision (PerkinElmer) plate reader, 540 excitation and 590 emission filters
9b; Detection; fluorescence (Read 2: UDG); EnVision (PerkinElmer) plate reader, 560 excitation and 665 emission filters
NOTES (numbers refer to sequence above)
1a; Reagents were dispensed in a medium-binding black solid-bottom Greiner plates (789176F) using a BioRptr liquid dispenser. Dispense 3 uL of [4/3x] 1 uM AID (provided by Kohli lab) and [4/3x] 2 U/mL UDG (NEB M0280L) into columns 1, 2, 5 to 48.
1b; Dispense 3 uL of [4/3x] 2 U/mL UDG into column 3.
1c; Dispense 3 uL of [4/3x] 1 uM AID into column 4.
2a; Compound (7-points [uM] (0.64; 3.2; 16; 80; 400; 2,000; 10,000; 20,000) double pin-transferred (Dip Factor = 2) using the Kalypsys (Wako USA) pintool equipped with a 1536 pinhead for a final concentration range of 7.32 nM - 114 uM.
2b; 10 mM Aurintricarboxylic Acid (Sigma A1895) (ATA, 8-point, n = 2, 1:2.5 dilution in column 2) double pin-transferred (Dip Factor = 2) using the Kalypsys (Wako USA) pintool equipped with a 1536 pinhead for a [final] range of 186 nM - 114 uM.
3; Room temperature incubation.
4; Dispense 1 uL of substrate mixture from the Kohli lab [4x] […] DJC20 and [4x] 250 nM DJC23 into columns 1 to 48 .
5; Room temperature incubation.
6; Dispense 4 uL of substrate mixture [2x] 250 mM NaOH into columns 1 to 48.
7; Centrifugation step to remove bubbles.
8; Room temperature incubation
9a; Fluorescence signal (column label AID) was read using the EnVision plate reader. […]
Potency means the concentration at half of the fitted maximal effect; tags describe the fitted curve by direction and shape.

| Structure (SMILES) | Potency |
| --- | --- |
| COCC(C)Nc1ncnc2c1cnn2-c1cccc(Cl)c1 (centres undefined) | inconclusive: 56.2 µM [inhibitor, partial curve, poor fit] |
| CCOc1ccc(CCNC(c2nnc(-c3ccccc3)o2)c2ccccc2Cl)cc1OCC (centres undefined) | inconclusive: 89.1 µM [inhibitor, single point] |
| COc1ccc(C(=O)NCC(c2cccs2)S(=O)(=O)c2cccs2)cc1 (centres undefined) | inconclusive: 100 µM [inhibitor, single point] |
| Cc1cccc(N/C=C/C(=O)c2ccc([N+](=O)[O-])cc2)c1 | inactive |
| N#CCCN1CCN(c2ccc(NS(=O)(=O)c3ccc(F)cc3Cl)c(C(=O)O)c2)CC1 | inactive |
| Cc1ccccc1C(=O)N1CCC(N(Cc2csc(-c3cccs3)n2)S(C)(=O)=O)CC1 | inconclusive: 89.1 µM [inhibitor, single point] |
| COc1cc(NC(=O)CCCN2C(=O)CCn3nc(-c4cn(C)c5ccccc45)cc32)cc(OC)c1 | inconclusive: 89.1 µM [inhibitor, partial curve, poor fit] |
| O=C(c1cnc(N2CCCCC2)c2ccccc12)N1CCN(c2ccc(F)cc2)CC1 | inconclusive: 70.8 µM [inhibitor, single point] |
| Cc1ccc(S(=O)(=O)Nc2ccc(N(C)C)c(C(=O)O)c2)cc1 | inactive |
| Fc1ccc(Sc2ccncc2)cc1 | inactive |
| CC(C)(C)C(=O)NCCCC(=O)NC1CCCCC1 | inactive |
| COc1ccc(-c2nc(SCCOc3cc(C)ccc3C(C)C)n3[nH]c(=O)cc3n2)cc1 | inconclusive: 100 µM [inhibitor, single point] |
| CCc1ccc(-n2nc(C)c3c(C)cc(=O)n(CC(=O)N(CC)Cc4ccccc4)c32)cc1 | inconclusive: 56.2 µM [inhibitor, partial curve, poor fit] |
| O=C(COC(=O)C(Cc1ccccc1)N1C(=O)C2C3CC(C(Br)C3Br)C2C1=O)c1ccc([N+](=O)[O-])cc1 (centres undefined) | inactive |
| O=C(c1cc(O)c(O)c([N+](=O)[O-])c1)c1ccccc1F | inconclusive: 100 µM [inhibitor, partial curve, poor fit] |
| Cc1ccc(NC(=O)c2cc(-c3cccs3)nc3ccccc23)c(C)c1 | inconclusive: 100 µM [inhibitor, single point] |
| COc1ccccc1NC(=O)N1CCOc2ccccc21 | inconclusive: 100 µM [inhibitor, partial curve, poor fit] |
| CCOc1ccccc1NC(=O)CCS(=O)(=O)c1ccc(OC)cc1 | inconclusive: 89.1 µM [inhibitor, single point] |
| COC(=O)c1c(SC)nc2ccccc2c1OCc1cc(C)ccc1C | inconclusive: 89.1 µM [inhibitor, single point] |
| CC(C)(O)C#Cc1ccc(C(=O)NCc2ccccc2)cc1 | inactive |
| COC(=O)c1scc(-c2ccc(C)cc2)c1S(=O)(=O)N1CCN(c2ccccc2F)CC1 | inconclusive: 100 µM [inhibitor, single point] |
| COc1ccc(CNC(=O)Cn2ncc3c(=O)oc4ccc(C)cc4c32)c(OC)c1 | inconclusive: 79.4 µM [inhibitor, partial curve, poor fit] |

| Structure (SMILES) | Potency |
| --- | --- |
| COc1ccc(-c2nc(CN3CCC(C(=O)NCc4ccc(F)cc4)CC3)c(C)o2)cc1OC | inconclusive: 89.1 µM [inhibitor, single point] |
| CCOC(=O)c1c(C)oc2nc(C)nc(N3CCN(c4cccc(C(F)(F)F)c4)CC3)c12 | inactive |
| Cc1cc(C)cc(OCCSc2nc(-c3cccs3)nc3cc(=O)[nH]n23)c1 | inconclusive: 89.1 µM [inhibitor, single point] |
| Cc1cccc(C)c1Nc1c(-c2ccc(O)cc2)nc2sccn12 | inconclusive: 79.4 µM [inhibitor, partial curve, poor fit] |
| COc1ccc(CNC(=O)C=C(C)C)cc1 | inactive |
| Cc1ccc(-n2c(SCC(N)=O)nc3c(c2=O)C2(CCCC2)Cc2ccccc2-3)cc1 | active: 79.4 µM |
| COc1cccc(NC(=O)c2ccc3nc(Cc4ccccc4)oc3c2)c1 | inconclusive: 89.1 µM [inhibitor, single point] |
| COc1ccc(-c2cn3c(n2)sc2cc(C(=O)Nc4cc(OC)cc(OC)c4)ccc23)cc1 | inactive |
| CCONC(=O)C(NC(=O)Cc1ccc2ccccc2c1)C(C)C (centres undefined) | inactive |
| O=[N+]([O-])c1cc(-c2nc(-c3ccccc3)no2)ccc1NC1CCCC1 | inconclusive: 89.1 µM [inhibitor, single point] |
| COc1ccc(CN2C(=O)N(c3ccc(C)cc3)C(=O)C2CC(=O)Nc2ccccc2)cc1OC (centres undefined) | inconclusive: 89.1 µM [inhibitor, single point] |
| CCOc1ccc(C(=O)NC(C(=O)NOC)C(C)C)cc1 (centres undefined) | inactive |
| COc1ccc(OCCSc2nc3ccccc3n2CC(=O)N2CCOCC2)cc1 | inconclusive: 89.1 µM [inhibitor, single point] |
| CCCCn1nc(C(=O)Nc2ccc(Br)cc2)c2ccccc2c1=O | inactive |
| CCc1ccccc1OCCSc1nnc(-c2cc(OC)c(OC)c(OC)c2)o1 | inconclusive: 89.1 µM [inhibitor, single point] |
| Cc1ccc(CN(C(=O)COc2ccc(Cl)cc2Cl)C2CCS(=O)(=O)C2)o1 (centres undefined) | inactive |
| CCCC1Cc2c(sc3nc(SCC(=O)c4ccccc4)nc(N)c23)CO1 (centres undefined) | inactive |
| CCc1ccc(-c2nc3cc(NC(=O)c4cccnc4)ccc3o2)cc1 | inconclusive: 89.1 µM [inhibitor, single point] |
| COc1ccc(N(C(=O)COc2ccccc2OC)S(=O)(=O)c2ccc(Cl)cc2)cc1 | inconclusive: 56.2 µM [inhibitor, partial curve, poor fit] |
| Cc1nc(-c2ccc(NC(=O)c3ccc(Br)o3)c(C)c2)no1 | inactive |
| Cc1ccc(-c2cc(C(=O)NCCN(C)C)c3ccccc3n2)cc1C | inactive |
| O=C(O)C1=CC(=C(c2ccc(O)c(C(=O)O)c2)c2ccc(O)c(C(=O)O)c2)C=CC1=O | inconclusive: 50.1 µM [inhibitor, partial curve, poor fit] |
